B1: GPR68, Q15743 (parent)
chain: MGNITADNSSMSCTIDHTIHQTLAPVVYVTVLVVGFPANCLSLYFGYLQIKARNELGVYLCNLTVADLFYICSLPFWLQYVLQHDNWSHGDLSCQVCGILLYENIYISVGFLCCISVDRYLAVAHPFRFHQFRTLKAAVGVSVVIWAKELLTSIYFLMHEEVIEDENQHRVCFEHYPIQAWQRAINYYRFLVGFLFPICLLLASYQGILRAVRRSHGTQKSRKDQIQRLVLSTVVIFLACFLPYHVLLLVRSVWEASCDFAKGVFNAYHFSLLLTSFNCVADPVLYCFVSETTHRDLARLRGACLAFLTCSRTGRAREAYPLGAPEASGKSGAQGEEPELLTKLHPAFQTPNSPGSGGFPTGRLA

Scores whose standard error is large were omitted. The source holds two more conditions with little spread; they are left out. Names with del lack the residues named; names with ins carry added residues between the positions named. For some assays here: How much ogerin was present is not stated here.

Variants of B1 are the subject of data set [1]. The data set is described as follows: cAMP reporter score (Enrich2 score, wild type = 0); higher = more signal; HEK293T, FACS bins.
Data set [2] covers variants of B1. As to the kind of experiment: surface expression score (Enrich2 score, wild type = 0); higher = more signal; HEK293T, FACS bins.

As for R312D, the cAMP reporter score in data set [1] (pH 5.5) was 0.241; in data set [1] (pH 6), -0.845; in data set [1] (pH 6, modulator: ogerin), 0.608; in data set [1] (pH 6.5, modulator: ogerin), 0.623. In addition, the surface expression score in data set [2] was -0.492.

Consider R312I, for which the cAMP reporter score in data set [1] (pH 5.5) was 0.704; in data set [1] (pH 6), -0.423; in data set [1] (pH 6, modulator: ogerin) it was 0.662; in data set [1] (pH 6.5, modulator: ogerin) it was 0.032. Besides, the surface expression score in data set [2] amounted to 0.603.

As to R312S, the cAMP reporter score in data set [1] (pH 5.5) was 0.116; in data set [1] (pH 6, modulator: ogerin), -0.308; in data set [1] (pH 6.5, modulator: ogerin) it was 1.05. In addition, in data set [2], the surface expression score was -0.319.

Consider R312Q, for which the cAMP reporter score is -0.932 in data set [1] (pH 5.5); 1.39 in data set [1] (pH 6); -0.449 in data set [1] (pH 6, modulator: ogerin); -0.305 in data set [1] (pH 6.5, modulator: ogerin). Besides, the surface expression score in data set [2] was -0.907.

Take R312K: the cAMP reporter score in data set [1] (pH 5.5) is -0.223; in data set [1] (pH 6), 0.067; in data set [1] (pH 6, modulator: ogerin), -0.42; in data set [1] (pH 6.5, modulator: ogerin), -0.197. In data set [2], the surface expression score is -0.288.

With E318W, the cAMP reporter score in data set [1] (pH 5.5) was -0.639; in data set [1] (pH 6), -0.577; in data set [1] (pH 6, modulator: ogerin), -0.651; in data set [1] (pH 6.5, modulator: ogerin), -0.576. Moreover, the surface expression score in data set [2] was -0.648.

Regarding E318G, the cAMP reporter score was -0.15 in data set [1] (pH 5.5) and -1.28 in data set [1] (pH 6.5, modulator: ogerin). Moreover, in data set [2], the surface expression score is -1.26.

In the case of E318A, the cAMP reporter score in data set [1] (pH 5.5) was 0.064; in data set [1] (pH 6) it was -0.179; in data set [1] (pH 6, modulator: ogerin), 0.075; in data set [1] (pH 6.5, modulator: ogerin), 0.586. In data set [2], the surface expression score was -0.047.

With E318C, the cAMP reporter score is 0.05 in data set [1] (pH 5.5); -0.871 in data set [1] (pH 6); -0.308 in data set [1] (pH 6, modulator: ogerin); -0.411 in data set [1] (pH 6.5, modulator: ogerin). In data set [2], the surface expression score was -0.341.

Consider E318Q, for which the cAMP reporter score in data set [1] (pH 5.5) was -0.002; in data set [1] (pH 6) it was -0.739; in data set [1] (pH 6, modulator: ogerin), 0.557; in data set [1] (pH 6.5, modulator: ogerin), 0.332. Besides, the surface expression score in data set [2] is 0.726.

With E318Y, the cAMP reporter score is -0.084 in data set [1] (pH 5.5); -0.734 in data set [1] (pH 6); -0.112 in data set [1] (pH 6, modulator: ogerin); -0.819 in data set [1] (pH 6.5, modulator: ogerin). Further, the surface expression score in data set [2] was -0.662.

As to E318S, the cAMP reporter score in data set [1] (pH 5.5) is 0.2; in data set [1] (pH 6), 1.25; in data set [1] (pH 6, modulator: ogerin) it was -0.284; in data set [1] (pH 6.5, modulator: ogerin) it was 0.321. Further, the surface expression score in data set [2] is -0.297.

Consider E318D, for which the cAMP reporter score in data set [1] (pH 5.5) was 0.207; in data set [1] (pH 6), -0.098; in data set [1] (pH 6, modulator: ogerin) it was 0.23; in data set [1] (pH 6.5, modulator: ogerin) it was -0.118. The surface expression score in data set [2] was 0.317.

On to E318L, for which the cAMP reporter score is 0.114 in data set [1] (pH 5.5); -1.42 in data set [1] (pH 6); 0.247 in data set [1] (pH 6, modulator: ogerin); -0.138 in data set [1] (pH 6.5, modulator: ogerin). Further, the surface expression score in data set [2] is -0.808.

In the case of E318V, the cAMP reporter score is 0.882 in data set [1] (pH 5.5); -0.553 in data set [1] (pH 6); 0.715 in data set [1] (pH 6, modulator: ogerin); 0.577 in data set [1] (pH 6.5, modulator: ogerin). For the same variant, in data set [2], the surface expression score was -0.4.

With E318P, the cAMP reporter score in data set [1] (pH 5.5) came to 1.2; in data set [1] (pH 6), 3.69; in data set [1] (pH 6, modulator: ogerin), 0.975; in data set [1] (pH 6.5, modulator: ogerin) it was 1.77. Further, in data set [2], the surface expression score is 0.75.

In the case of E318F, the cAMP reporter score was 0.091 in data set [1] (pH 5.5); -0.42 in data set [1] (pH 6); -0.393 in data set [1] (pH 6, modulator: ogerin); -0.846 in data set [1] (pH 6.5, modulator: ogerin). Moreover, the surface expression score in data set [2] is -0.741.

As to E318N, the cAMP reporter score was 0.242 in data set [1] (pH 5.5); -0.421 in data set [1] (pH 6); -0.291 in data set [1] (pH 6, modulator: ogerin); -0.366 in data set [1] (pH 6.5, modulator: ogerin). In addition, in data set [2], the surface expression score is -0.562.

For E318T, the cAMP reporter score in data set [1] (pH 5.5) was 0.259; in data set [1] (pH 6), 0.698; in data set [1] (pH 6, modulator: ogerin), -0.14; in data set [1] (pH 6.5, modulator: ogerin), -0.077. Also, the surface expression score in data set [2] is -0.147.

In the case of E318H, the cAMP reporter score was 0.266 in data set [1] (pH 5.5); -0.589 in data set [1] (pH 6); 0.726 in data set [1] (pH 6, modulator: ogerin); 0.226 in data set [1] (pH 6.5, modulator: ogerin). Besides, the surface expression score in data set [2] was -0.678.

In the case of E318M, the cAMP reporter score is -0.612 in data set [1] (pH 5.5); -0.281 in data set [1] (pH 6); -0.021 in data set [1] (pH 6, modulator: ogerin); -0.73 in data set [1] (pH 6.5, modulator: ogerin). The surface expression score in data set [2] is -1.2.

Regarding E318I, the cAMP reporter score was -0.556 in data set [1] (pH 5.5); -0.101 in data set [1] (pH 6); -0.754 in data set [1] (pH 6, modulator: ogerin); -0.633 in data set [1] (pH 6.5, modulator: ogerin). The surface expression score in data set [2] was -1.6.

For the variant E318K, the cAMP reporter score in data set [1] (pH 5.5) came out at 1.76; in data set [1] (pH 6) it was 1.32; in data set [1] (pH 6, modulator: ogerin), 1.39; in data set [1] (pH 6.5, modulator: ogerin) it was 1.13. For the same variant, the surface expression score in data set [2] is 0.987.

As to E318R, the cAMP reporter score in data set [1] (pH 5.5) was 1.21; in data set [1] (pH 6) it was -0.346; in data set [1] (pH 6, modulator: ogerin), 1.26; in data set [1] (pH 6.5, modulator: ogerin), 0.894. Moreover, in data set [2], the surface expression score is 0.193.

F307_L308insGS: the cAMP reporter score in data set [1] (pH 5.5) was 0.797; in data set [1] (pH 6) it was -0.306; in data set [1] (pH 6, modulator: ogerin) it was 0.783; in data set [1] (pH 6.5, modulator: ogerin), 0.225. Besides, the surface expression score in data set [2] is 0.044.

As to T309_C310del, the cAMP reporter score in data set [1] (pH 5.5) was 0.205; in data set [1] (pH 6, modulator: ogerin), -0.046; in data set [1] (pH 6.5, modulator: ogerin), 0.484. Moreover, in data set [2], the surface expression score came out at 0.054.

Consider R317_E318insGS, for which the cAMP reporter score in data set [1] (pH 5.5) was 0.34; in data set [1] (pH 6), -0.338; in data set [1] (pH 6, modulator: ogerin), 0.318; in data set [1] (pH 6.5, modulator: ogerin), 0.503. Further, the surface expression score in data set [2] is 0.116.

For R317_E318del, the cAMP reporter score in data set [1] (pH 5.5) stood at 1.05; in data set [1] (pH 6) it was 1.75; in data set [1] (pH 6, modulator: ogerin) it was 1.22; in data set [1] (pH 6.5, modulator: ogerin), 1.1. The surface expression score in data set [2] came to 0.267.

Turning to E318_A319insG, the cAMP reporter score was -0.011 in data set [1] (pH 5.5); -0.162 in data set [1] (pH 6); 0.455 in data set [1] (pH 6, modulator: ogerin); -0.083 in data set [1] (pH 6.5, modulator: ogerin). Moreover, the surface expression score in data set [2] was 0.613.

Regarding R315del, the cAMP reporter score in data set [1] (pH 5.5) is -0.137; in data set [1] (pH 6), -1.4; in data set [1] (pH 6, modulator: ogerin) it was 1.15; in data set [1] (pH 6.5, modulator: ogerin), 0.289. Also, the surface expression score in data set [2] is 0.012.

Values taken from the GPR68 mutational scans of Howard et al. (2025).
